The campaign covered roughly 150,000 compounds. About 540 (0.36%) showed an effect of 50% or more. Some of the results follow.
These molecules were tested on Plasmodium falciparum (assay: Primary screen in NF54 nanoGlo assay, in single point, at 2uM, 72h; a lower Z score goes with more inhibition). Details: timepoint 72 hour.
Type: functional, Erythrocyte

SMILES | % Inhibition | Z score
N#Cc1ccccc1-c1c(-c2ccccc2)ncn1CCN1CCC[C@H](C(N)=O)C1 | -2% | 0.34
Cc1nc([C@H]2C[C@@H](Nc3nccc(N4CCC(O)CC4)n3)C2)cc(=O)[nH]1 | 4% | -0.7
OCCOCCCNC1C2COCC1CN(Cc1ccccc1)C2 (stereo unspecified) | -5% | 0.93
Cc1cc(N[C@H]2CCO[C@@H]2c2nccn2C)c2cc(OC(F)F)ccc2n1 | 1% | -0.19
c1ccc(-c2nc(-c3ccncc3)no2)c(O[C@H]2CCN(Cc3ccc4c(c3)CCO4)C2)c1 | -2% | 0.38
CCOc1ccc2nc(N3CCC[C@H](C(=O)N(C)Cc4ccc5nccnc5c4)C3)nc(C)c2c1 | -2% | 0.32
C[C@@H](c1cccc(-c2ccc(O)c(-c3ccno3)c2)c1)N1CCCC1 | -2% | 0.41
O=C1[C@@H](NCc2ccc3ncccc3c2)CCCN1c1ccccc1F | -2% | 0.32
CN(CC(=O)N[C@@H]1C=CCCC1)Cc1cccnc1 | -5% | 1.01
CN1CCC(CN[C@H]2CCN(c3ccccc3)C2)(c2ccccc2)CC1 | -11% | 1.96
CC1CN(c2ccccc2CNCC2CCN(C3CC3)C2)CC(C)O1 (stereo unspecified) | -2% | 0.27
OC1(c2ccccc2)CCCC2CN(c3ncnc4[nH]ccc34)CC21 (stereo unspecified) | 0% | -0.11
CCc1nn(C)c(Cl)c1CNCCCN1CCCN(C)CC1 | -1% | 0.11
CCCc1nnc(NCc2cc3cc(OC)ccc3o2)o1 | -5% | 0.93
CC[C@@H](C(=O)NC)n1cnc(-c2ccccc2)c1-c1cccc2cnccc12 | 3% | -0.56
COc1cc(C(=O)O)ccc1S(=O)(=O)NC(C)(C)c1nccs1 | 0% | 0.1
Cc1nc(NC2CCN(C3CCOCC3)CC2)cc([C@H]2C[C@H](N)C2)n1 | -7% | 1.24
Cn1ncc2c(N)nc(N3CCC(O)(c4ccccc4)C4CCCCC43)nc21 (stereo unspecified) | -7% | 1.3
CC[C@H]1C(=O)N(C)CCN1C(=O)c1cc(C(F)(F)F)ccc1Cl | -6% | 1.19
C[C@@H](c1ccc(-c2ccc3[nH]c(CO)nc3c2)cc1)N1CCCCC1 | -8% | 1.74
FC(F)(F)Oc1ccc(Nc2ncncc2-c2nc(-c3ccsc3)no2)cc1 | -4% | 0.84
CCN1CCN(c2cc(CN[C@H]3CCCOc4ccc(C)cc43)ccn2)CC1 | 12% | -2.09
COc1ccc(-c2cc(C(=O)NC3CCN(c4cc(C(F)(F)F)ncn4)CC3)[nH]n2)cc1 | 9% | -1.56
COc1ccccc1N1CCN(C2CCN(c3ccc(C(=O)N[C@@H](C)c4ccccc4)cc3)CC2)CC1 | -11% | 1.99
Fc1cccc2c(Nc3cccc(CN4CCOCC4)c3)ncnc12 | -13% | 2.32
CC(C)c1cc(NCc2ccc3cc[nH]c3c2)n2nccc2n1 | -4% | 0.87
Nc1nc2c(c(NCC3(N4CCOCC4)CCCC3)n1)CCNCC2 | -2% | 0.39

SMILES | % Inhibition | Z score
CCOC1CC(CNCc2cc(-c3ccccc3)ccc2OC)(N2CCOCC2)C1 (stereo unspecified) | 16% | -3.11
CC(C)(C)OC(=O)N1CCC(CN2CCCN(Cc3ccc(F)cc3)CC2)CC1 | -1% | 0.12
Cc1nccn1-c1cncc(NCc2ccnc(OC(C)C)c2)n1 | 4% | -0.9
Cc1cc(C(=O)N[C@@H](CO)c2ccccc2C(F)(F)F)oc1C | -5% | 1.01
Cc1cc(N2CCC(CNc3nc4cnccc4s3)CC2)ccn1 | 10% | -1.59
c1ccc2c(Nc3ccc4[nH]cnc4c3)c3ccccc3nc2c1 | 98% | -19.44
c1cc(N2CCOCC2)nc(C2CCN(CC34CNCC3C4)CC2)n1 (stereo unspecified) | -8% | 1.26
Cc1nc(-c2ccc(C(=O)Nc3ccc(-c4nc5c(Cl)cccc5[nH]4)cc3)cc2)no1 | -11% | 1.72
Cc1cc(CNC2CCN(CC3CC3)CC2)nc(N2CCCC2)n1 | -3% | 0.57
Cc1occc1-c1cc(NC(=O)N2CCC(O)(C(F)(F)F)CC2)no1 | -2% | 0.31
Cc1cccc(-c2cccc(N3CCC(NCc4cc(C)[nH]n4)CC3)c2)c1 | -7% | 1.27
Cc1cc(N[C@@H](C)c2nc(C3CC3)no2)nc(Nc2cccc(O)c2)n1 | 8% | -1.39
O=C([C@@H]1CC[C@H](Nc2ccnc3ccncc23)C1)N1CCCC1 | -7% | 1
O=C(c1cnc(OCC2CC2)cn1)N1CC[C@H](Nc2ccc3nccn3n2)C1 | -7% | 1.13
COCCn1ccc2cc(Nc3nccc(C)n3)ccc21 | -3% | 0.61
Clc1ccc2[nH]c(CCNc3nccc(-c4ccncc4)n3)nc2c1 | 6% | -1.32
CNc1ncccc1C(=O)N1CCN(Cc2ccoc2)[C@@H](CCO)C1 | -11% | 1.83
CN1CCN(c2ncccc2CNc2ccc(OC(F)F)cn2)CC1 | 4% | -0.76
COc1ccc(-c2ccc(C3CCNCC3)cc2C)cn1 | 7% | -1.21
Cc1nc2ccc(C(=O)NCCc3noc(C4CC4)n3)cc2o1 | -2% | 0.47
COc1ccc(S(=O)(=O)N(C)C(=O)c2cnn3c2CCCC3)cc1 | 3% | -0.41
CCn1cncc1CNC(=O)c1cccc(-c2cc(NC(C)C)ncn2)c1 | 0% | -0.07
CN1CCN(CC2CCN(C(=O)Nc3ccccc3N(C)C3CCCC3)CC2)CC1 | -2% | 0.34
N#Cc1ccc(CN2CCC(Nc3ccc4[nH]nnc4c3)CC2)cc1 | -9% | 1.54
COc1cc2nc(NCc3c[nH]nc3C)sc2cc1OC | 4% | -0.95
c1ccc2[nH]c(CCNc3cc(N4CCOCC4)ncn3)cc2c1 | -16% | 2.71
